Results are given in words; binding and its absence hold for the method and conditions named. In cells and extracts the contact can be indirect. Some results given as binding are weak or reduced against the parent protein; the word gives no strength. One block for each substance: values may come before it.
Assays:
[1] = target: FLAG-53BP1 (UniProt Q12888); assay: co-IP; HeLa transiently transfected with FLAG-53BP1 and Myc-PP4R3β constructs, left asynchronous (Asyn); whole cell extracts, FLAG IP, immunoblot; NETN buffer
[2] = target: 53BP1 as used in Supplementary Fig. 1a (UniProt Q12888); assay: co-IP; 53BP1 immunoprecipitated with full-length or deletion mutants of PP4R3β (Supplementary Fig. 1a); cells and bait not stated in the text shown; NETN lysis buffer
[3] = target: FLAG-53BP1 (UniProt Q12888); assay: co-IP; HeLa transiently transfected with FLAG-53BP1 and Myc-PP4R3β constructs, synchronized to prometaphase (M) with nocodazole; whole cell extracts, FLAG IP, immunoblot; NETN buffer
[4] = target: FLAG-HA-PP4R3β, full length (UniProt Q5MIZ7); assay: co-IP; HeLa stably expressing FLAG-HA PP4R3β, arrested in prometaphase; FLAG immunoprecipitation, elution analysed by immunoblot for endogenous CDK5
[5] = target: 53BP1, endogenous in A375-AS cells (human (endogenous in A375)) (UniProt Q12888); assay: co-IP; Endogenous 53BP1 immunoprecipitated from DMSO-treated A375-AS cells at time points after release from prometaphase arrest; immunoblot for endogenous PP4R3β
[6] = target: 53BP1, endogenous in A375-AS cells (human (endogenous in A375)) (UniProt Q12888); assay: condition: only A375-AS cells treated with 1NMPP1 (CDK5 inhibited); co-IP; Endogenous 53BP1 immunoprecipitated from 1NMPP1-treated A375-AS cells (CDK5 inhibited) at time points after release from prometaphase arrest; immunoblot for endogenous PP4R3β

By UniProt entry, the sequences of proteins in these tests, tags left out.
UniProt Q12888: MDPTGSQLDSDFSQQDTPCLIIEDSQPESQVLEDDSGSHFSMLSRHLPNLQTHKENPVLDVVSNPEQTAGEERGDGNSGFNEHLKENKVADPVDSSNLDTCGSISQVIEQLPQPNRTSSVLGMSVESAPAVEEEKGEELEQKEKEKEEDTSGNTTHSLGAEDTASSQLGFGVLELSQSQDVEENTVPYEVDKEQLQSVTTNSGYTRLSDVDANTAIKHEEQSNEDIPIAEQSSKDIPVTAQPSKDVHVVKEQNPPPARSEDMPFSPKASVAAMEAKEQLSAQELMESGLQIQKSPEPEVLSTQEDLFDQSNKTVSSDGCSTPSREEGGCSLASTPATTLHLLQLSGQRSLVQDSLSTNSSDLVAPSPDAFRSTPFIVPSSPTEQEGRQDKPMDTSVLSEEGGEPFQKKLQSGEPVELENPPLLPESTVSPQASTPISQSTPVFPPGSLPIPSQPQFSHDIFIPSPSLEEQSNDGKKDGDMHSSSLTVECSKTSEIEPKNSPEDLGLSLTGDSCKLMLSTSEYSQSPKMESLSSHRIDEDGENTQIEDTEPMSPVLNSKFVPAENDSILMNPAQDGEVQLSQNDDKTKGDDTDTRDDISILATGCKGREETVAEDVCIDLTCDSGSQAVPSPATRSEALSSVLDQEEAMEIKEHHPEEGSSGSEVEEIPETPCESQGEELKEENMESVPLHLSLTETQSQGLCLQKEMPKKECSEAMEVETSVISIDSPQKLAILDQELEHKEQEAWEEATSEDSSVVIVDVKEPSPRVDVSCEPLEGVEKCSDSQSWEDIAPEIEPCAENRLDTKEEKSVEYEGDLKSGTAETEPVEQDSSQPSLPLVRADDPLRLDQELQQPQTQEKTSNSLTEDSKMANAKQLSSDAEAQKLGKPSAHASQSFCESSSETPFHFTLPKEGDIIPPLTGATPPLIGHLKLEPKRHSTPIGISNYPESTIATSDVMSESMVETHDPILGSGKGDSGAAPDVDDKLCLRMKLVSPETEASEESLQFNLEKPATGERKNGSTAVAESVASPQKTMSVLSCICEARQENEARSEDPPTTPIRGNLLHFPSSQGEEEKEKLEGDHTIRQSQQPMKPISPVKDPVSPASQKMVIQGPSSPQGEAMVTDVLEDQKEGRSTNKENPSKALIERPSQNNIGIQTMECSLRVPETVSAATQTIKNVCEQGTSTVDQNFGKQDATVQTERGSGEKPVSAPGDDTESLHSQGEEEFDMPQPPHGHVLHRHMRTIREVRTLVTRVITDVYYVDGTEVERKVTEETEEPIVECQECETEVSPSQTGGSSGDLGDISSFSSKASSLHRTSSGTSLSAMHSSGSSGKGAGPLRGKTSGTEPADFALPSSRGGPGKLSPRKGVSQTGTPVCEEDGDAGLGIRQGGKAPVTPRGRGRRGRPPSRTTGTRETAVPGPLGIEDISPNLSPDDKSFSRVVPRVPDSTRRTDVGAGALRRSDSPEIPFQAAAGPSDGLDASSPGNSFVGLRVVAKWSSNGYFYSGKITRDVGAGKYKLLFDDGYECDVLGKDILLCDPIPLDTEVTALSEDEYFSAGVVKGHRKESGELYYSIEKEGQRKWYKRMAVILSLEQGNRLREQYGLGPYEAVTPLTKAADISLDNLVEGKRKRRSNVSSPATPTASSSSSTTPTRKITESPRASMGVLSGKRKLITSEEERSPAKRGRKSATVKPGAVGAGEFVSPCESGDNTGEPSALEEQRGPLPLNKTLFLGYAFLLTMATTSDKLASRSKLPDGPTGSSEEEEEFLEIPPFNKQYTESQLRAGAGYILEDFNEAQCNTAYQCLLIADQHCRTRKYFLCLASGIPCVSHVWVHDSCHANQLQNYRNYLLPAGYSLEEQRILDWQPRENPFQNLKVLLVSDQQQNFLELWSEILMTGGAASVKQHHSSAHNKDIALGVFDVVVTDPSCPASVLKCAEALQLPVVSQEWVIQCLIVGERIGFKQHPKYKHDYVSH
UniProt Q5MIZ7: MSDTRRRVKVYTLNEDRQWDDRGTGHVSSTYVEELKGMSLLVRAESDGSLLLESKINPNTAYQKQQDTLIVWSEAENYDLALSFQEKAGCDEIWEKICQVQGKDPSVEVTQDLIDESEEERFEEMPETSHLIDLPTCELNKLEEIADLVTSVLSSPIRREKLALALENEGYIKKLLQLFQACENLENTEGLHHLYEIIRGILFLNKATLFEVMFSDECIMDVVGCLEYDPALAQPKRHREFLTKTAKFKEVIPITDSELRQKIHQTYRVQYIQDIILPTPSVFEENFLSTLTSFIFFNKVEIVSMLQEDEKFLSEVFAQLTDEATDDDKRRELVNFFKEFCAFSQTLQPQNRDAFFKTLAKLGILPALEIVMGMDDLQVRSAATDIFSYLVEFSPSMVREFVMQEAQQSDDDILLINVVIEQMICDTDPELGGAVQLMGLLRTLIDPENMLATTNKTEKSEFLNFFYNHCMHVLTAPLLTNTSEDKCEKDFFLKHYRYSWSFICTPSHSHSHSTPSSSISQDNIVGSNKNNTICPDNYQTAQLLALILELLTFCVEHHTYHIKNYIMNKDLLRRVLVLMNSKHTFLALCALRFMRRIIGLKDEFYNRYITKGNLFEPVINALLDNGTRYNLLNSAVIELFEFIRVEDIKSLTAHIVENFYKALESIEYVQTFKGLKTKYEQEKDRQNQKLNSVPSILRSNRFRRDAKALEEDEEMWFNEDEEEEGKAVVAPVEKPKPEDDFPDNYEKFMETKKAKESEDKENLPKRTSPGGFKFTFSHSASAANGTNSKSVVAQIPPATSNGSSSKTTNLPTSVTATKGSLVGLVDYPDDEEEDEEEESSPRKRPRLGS

binding [1]: binds weakly
binding [2]: binds
binding [3]: binds
Substance: Myc-PP4R3β, full length, wild type (from UniProt Q5MIZ7 1-849)

binding [4]: binds
Substance: CDK5, endogenous (from UniProt Q00535 1-292) (enzyme)

binding [5]: binds
binding [6]: no binding
Substance: PP4R3β, endogenous in A375-AS cells (from UniProt Q5MIZ7 1-849)
